Source: publication PMC4081100
The entries are a selection whose mix differs from that of the whole data set. For part of these data: At the low end of the ranking the order means little. The list shows a part of the results. For part of these data: The source does not settle which construct or isoform was used.

Key:
Assay in all cases: universal protein binding microarray (PBM)
Settings in all cases: transcription factors of Arabidopsis thaliana; high values mean tight binding; most listed sequences are background and not binding sites; double strand, one strand shown
[1] = target: GST-NTL6(1-168) (UniProt Q9SCK6)
[2] = target: T1, GST-ANAC055(1-171) (UniProt Q9LDY8)
T1 sequence: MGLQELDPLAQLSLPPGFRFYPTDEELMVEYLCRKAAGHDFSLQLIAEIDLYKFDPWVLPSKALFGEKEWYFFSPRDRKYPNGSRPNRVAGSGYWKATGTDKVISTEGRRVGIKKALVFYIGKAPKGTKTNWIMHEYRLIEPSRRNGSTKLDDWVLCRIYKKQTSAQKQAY

[3] = target: T2, GST-ATAF1 NAC domain (UniProt Q39013)
T2 sequence: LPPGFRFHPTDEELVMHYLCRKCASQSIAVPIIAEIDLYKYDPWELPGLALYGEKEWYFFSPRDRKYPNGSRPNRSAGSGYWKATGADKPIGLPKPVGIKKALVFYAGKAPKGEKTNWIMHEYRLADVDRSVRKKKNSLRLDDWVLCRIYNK

[4] = target: T3, GST-NAP(1-166) (UniProt O49255)
T3 sequence: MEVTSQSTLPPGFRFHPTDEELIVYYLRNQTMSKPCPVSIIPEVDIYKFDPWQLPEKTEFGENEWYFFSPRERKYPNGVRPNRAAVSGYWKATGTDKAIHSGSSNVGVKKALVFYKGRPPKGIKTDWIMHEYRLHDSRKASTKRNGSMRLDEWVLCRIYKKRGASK

[5] = target: T4, GST-NST2(1-184) (UniProt Q9M274)
T4 sequence: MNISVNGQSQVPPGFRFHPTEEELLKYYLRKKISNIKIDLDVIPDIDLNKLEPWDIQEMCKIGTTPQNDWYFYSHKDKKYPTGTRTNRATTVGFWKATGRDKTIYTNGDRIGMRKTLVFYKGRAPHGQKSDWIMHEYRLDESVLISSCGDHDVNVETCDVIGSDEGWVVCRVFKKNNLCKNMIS

[6] = target: T5, GST-NTL8 NAC domain (UniProt Q9XIN7)
T5 sequence: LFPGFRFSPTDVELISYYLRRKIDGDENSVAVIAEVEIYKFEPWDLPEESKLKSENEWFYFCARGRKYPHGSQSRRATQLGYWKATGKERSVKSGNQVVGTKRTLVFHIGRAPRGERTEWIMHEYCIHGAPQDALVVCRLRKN

[7] = target: T6, GST-SND1(1-203) (UniProt Q9LPI7)
T6 sequence: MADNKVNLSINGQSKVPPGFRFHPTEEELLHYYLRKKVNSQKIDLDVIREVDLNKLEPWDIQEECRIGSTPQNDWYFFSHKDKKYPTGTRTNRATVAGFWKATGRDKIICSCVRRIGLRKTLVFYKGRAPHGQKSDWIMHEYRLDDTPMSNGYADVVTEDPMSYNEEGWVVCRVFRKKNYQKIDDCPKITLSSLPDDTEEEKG

[8] = target: T7, GST-VND3 NAC domain (UniProt Q9FH59)
T7 sequence: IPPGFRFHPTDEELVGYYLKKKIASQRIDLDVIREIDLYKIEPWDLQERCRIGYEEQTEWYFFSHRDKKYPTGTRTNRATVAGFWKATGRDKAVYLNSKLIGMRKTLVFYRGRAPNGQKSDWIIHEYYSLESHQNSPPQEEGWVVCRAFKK

[9] = target: T8, GST-VND7 NAC domain (UniProt Q9C8W9)
T8 sequence: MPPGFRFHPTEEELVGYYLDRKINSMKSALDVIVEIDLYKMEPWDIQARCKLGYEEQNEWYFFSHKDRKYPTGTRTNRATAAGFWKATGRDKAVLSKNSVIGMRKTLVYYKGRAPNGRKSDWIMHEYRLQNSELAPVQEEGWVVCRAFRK

[10] = target: T9, GST-VOZ2 (Arabidopsis thaliana) (UniProt Q9SLB9)
T9 sequence: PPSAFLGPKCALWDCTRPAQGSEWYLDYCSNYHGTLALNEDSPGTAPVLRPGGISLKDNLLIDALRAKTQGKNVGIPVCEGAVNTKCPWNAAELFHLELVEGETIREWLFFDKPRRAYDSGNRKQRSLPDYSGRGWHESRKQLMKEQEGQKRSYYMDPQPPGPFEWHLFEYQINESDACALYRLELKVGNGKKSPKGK

[11] = target: T10, GST-ANAC092(1-176) (UniProt Q9FKA0)
T10 sequence: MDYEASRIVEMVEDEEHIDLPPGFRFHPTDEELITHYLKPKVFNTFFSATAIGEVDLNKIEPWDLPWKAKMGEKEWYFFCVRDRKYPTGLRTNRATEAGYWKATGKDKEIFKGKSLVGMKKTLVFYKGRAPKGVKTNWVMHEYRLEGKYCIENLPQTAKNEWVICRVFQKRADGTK

[12] = target: T11, GST-ANAC019 NAC domain (UniProt Q9C932)
T11 sequence: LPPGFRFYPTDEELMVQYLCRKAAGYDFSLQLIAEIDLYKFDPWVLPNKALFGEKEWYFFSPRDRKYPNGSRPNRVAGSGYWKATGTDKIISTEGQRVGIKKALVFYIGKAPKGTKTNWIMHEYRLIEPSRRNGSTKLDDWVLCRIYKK

[13] = target: T12, GST-ANAC092(1-285) full length (UniProt Q9FKA0)
T12 sequence: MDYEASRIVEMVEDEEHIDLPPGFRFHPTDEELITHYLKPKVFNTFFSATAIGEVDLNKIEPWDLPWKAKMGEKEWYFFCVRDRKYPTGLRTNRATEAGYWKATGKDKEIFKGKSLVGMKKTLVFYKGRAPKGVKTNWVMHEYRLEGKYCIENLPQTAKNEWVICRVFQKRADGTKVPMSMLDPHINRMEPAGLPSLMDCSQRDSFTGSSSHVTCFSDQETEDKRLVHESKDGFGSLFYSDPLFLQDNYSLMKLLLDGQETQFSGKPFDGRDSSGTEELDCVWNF

[14] = target: GST-WRKY1(266-371) (UniProt Q9SI37)

Sequence	binding signal [1] [E-score]	binding signal [2] [E-score]	binding signal [3] [E-score]	binding signal [4] [E-score]	binding signal [5] [E-score]	binding signal [6] [E-score]	binding signal [7] [E-score]	binding signal [8] [E-score]	binding signal [9] [E-score]	binding signal [10] [E-score]	binding signal [11] [E-score]	binding signal [12] [E-score]	binding signal [13] [E-score]	binding signal [14] [E-score]
AGTCAAGG	0.0196	-0.00357	0.0036	0.0507	0.0876	0.0248	0.0282	-0.0657	-0.0219	-0.0668				
AGGTCAAA	0.0901			-0.0535	-0.00307	-0.000155	-0.0327	0.062		0.0405	-0.00598	-0.0413	-0.0869	
TGAAGCAA	0.389	0.0399	0.0385	-0.0591			0.447	0.0492		0.0529				-0.0695
CCAGTCAA	-0.0773	0.000265	0.0414	-0.024	-0.0404	-0.00734	0.0251	-0.0476	-0.0766	-0.0533			-0.0494	
ACGTCAAA	0.0817		0.176		0.261	0.00592	0.361	0.252	0.25	0.181		0.262		
GTTACGCA	0.0189	0.189			0.219	0.0244	0.422	0.317		0.138				-0.195
AGTCAAAT	-0.0477	0.049			-0.0727	-0.127	-0.109	0.0244		0.105	-0.159	-0.0206	-0.0264	0.476
TACACGTA	0.0256					-0.0294	0.251	0.375		0.0684	0.382		0.411	-0.0035
GCATTGAC	-0.0593	0.0486		-0.00861	0.0561	-0.0912	-0.0839	0.0107	-0.069	0.125		0.0256	0.00675	
ATTACGTC	-0.00629					0.00209	0.432	0.37		0.104		0.329		
AGTCTGAC	-0.0265		0.0248		-0.153	-0.0709	-0.121	0.0212		-0.146	0.00541	0.0699	-0.0398	
AGAGGGAA				0.111	0.0185		0.0321	0.0709		0.0616		0.0124	-0.0523	-0.0525
AATTACGT	0.142					0.205	0.42	0.47		0.218				
AGGGTAAA	0.0852		-0.0164			0.429	0.153	-0.0758		0.0368		-0.0249		0.0129
CACGCAAG							0.404		0.367	-0.0452				0.0865
AGTTACGC	-0.00341	0.0766				-0.0167	0.412		0.0942	0.095				-0.125

Sequence	binding signal [1] [E-score]	binding signal [2] [E-score]	binding signal [3] [E-score]	binding signal [4] [E-score]	binding signal [5] [E-score]	binding signal [6] [E-score]	binding signal [7] [E-score]	binding signal [8] [E-score]	binding signal [9] [E-score]	binding signal [10] [E-score]	binding signal [11] [E-score]	binding signal [12] [E-score]	binding signal [13] [E-score]	binding signal [14] [E-score]
CTTGACCA	-0.00901			-0.0659		-0.021	0.00384		-0.0975	0.0611			0.00912	0.484
ATTGACTA	0.0208					-0.0827	0.0106		-0.0284	0.141		-0.0072		0.466
CGTACGCA	0.0427	0.328					0.32		0.341	0.0744				0.0213
ATAGTCAA	-0.00351					-0.0289	-0.0501		0.12	0.148	-0.0769	-0.0525		0.473
AAAAAGTC	-0.0367			-0.00948			0.0306		0.0465	0.0946	0.015	0.0791	0.037	0.426
AGGGAAAT	0.0669	0.0389		-0.0691	0.0566	0.406	-0.02		0.014	0.0889				-0.153
CACGCATA	-0.0977		0.0454	0.147		-0.101	0.18		-0.0207	0.0497	0.397	0.0473		-0.0365
ATTGGTCA	0.0425	-0.07	-0.0277	-0.0973	0.0255	-0.0735	0.0123		-0.0967	-0.00703	0.0884	-0.0749	0.105	0.454
AAGCAATC	0.324			-0.0264			0.466		0.289	-0.0691				-0.103
ATGTTGAC	0.00187	-0.0389		-0.0993	-0.0585	-0.188	-0.0689		-0.117	0.101	-0.196	-0.144	-0.0758	0.474
AAGGTCAG	0.0225	-0.0781	0.0646	-0.0648	-0.0513		-0.108		-0.061	0.0345	-0.0381	-0.00226	-0.0705	0.425
AAATACGT	0.0306		0.346	0.29		0.101	0.21		0.263	0.151				-0.0215
CAGGGAAA	0.0693	0.0449	-0.0223	0.0485	-0.0228	0.407	0.0967		-0.00497	0.0633	0.141			-0.0612
AAGCAAAG	0.342					0.222	0.403		0.25	0.057	0.302		0.369	0.019
ACACACGC	0.0666			0.0855		-0.0429	0.221		0.213	0.0306		0.169		-0.0382
TGCGTACA	0.0117		0.272			0.0577	0.393		0.281	0.221				-0.0302
